# Laboratory results taken from PubChem BioAssay AID624170 (National Center for Advancing Translational Sciences (NCATS), 2012).
# About 850 (0.21%) of roughly 410,000 compounds were called active. The shares of active, inactive and inconclusive entries below differ from those in the screen. Calls follow the shape of the dose curve; as a rule, active = well fitted inhibition curve with a large enough effect; inconclusive = small, poorly fitted or top-dose-only effect, or another doubt; inactive = no such curve, though single readings can be large or run the other way. No potency is given beside an inconclusive call; the fits are too rough.
# Target: Glutaminase kidney isoform, mitochondrial (Homo sapiens) (UniProt O94925)
# Assay: qHTS for Inhibitors of Glutaminase (GLS)
# Conditions: GLS enzymatic activity, qHTS titration; series mostly up to 45.5 µM; activity change, negative = inhibition: at the top concentration
# Summary of the method: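 Read-out is an Amplex red fluorescence increase coupled through glutamate oxidase and HRP, measured before and after 30 min room-temperature incubation. hKGA is in 45 mM KH2PO4 (pH 8.2) with 0.02% Tween-20; glutamine added as 1mM solution.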
# % is scaled to controls: 0 for no effect and ±100 for the full control effect; potency is read from the fitted curve at half-maximal effect; tags tell the direction and shape of the fitted curve.
# Sequence of UniProt O94925 (O94925 whole entry, looked up, canonical isoform): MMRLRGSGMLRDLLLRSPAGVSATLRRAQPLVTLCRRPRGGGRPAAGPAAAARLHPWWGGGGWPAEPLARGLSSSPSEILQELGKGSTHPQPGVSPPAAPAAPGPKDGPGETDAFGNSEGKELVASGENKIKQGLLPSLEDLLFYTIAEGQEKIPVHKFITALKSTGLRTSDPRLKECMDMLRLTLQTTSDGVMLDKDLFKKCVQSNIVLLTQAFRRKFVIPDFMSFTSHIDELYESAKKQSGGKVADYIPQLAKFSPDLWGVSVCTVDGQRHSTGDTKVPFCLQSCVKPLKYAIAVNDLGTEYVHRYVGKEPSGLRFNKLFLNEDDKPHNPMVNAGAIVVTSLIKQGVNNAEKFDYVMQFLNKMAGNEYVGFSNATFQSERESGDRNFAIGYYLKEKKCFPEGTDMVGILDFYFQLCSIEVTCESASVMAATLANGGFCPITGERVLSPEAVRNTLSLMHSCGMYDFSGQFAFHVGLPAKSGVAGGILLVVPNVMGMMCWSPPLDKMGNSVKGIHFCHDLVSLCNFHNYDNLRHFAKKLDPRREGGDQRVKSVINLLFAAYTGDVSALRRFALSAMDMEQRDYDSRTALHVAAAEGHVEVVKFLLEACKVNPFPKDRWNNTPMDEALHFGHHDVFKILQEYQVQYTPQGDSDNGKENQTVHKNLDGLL
SMILES,Potency,"activity change, negative = inhibition"
Cc1cccc(Nc2nnc(SCC(=O)c3ccc(Br)s3)s2)c1C,"inconclusive [inhibitor, single point]",–
CCN(CC)c1ccc(N=CN2CCOCC2)cc1,"inconclusive [inhibitor, partial curve]",–
CC1CC(C)CN(C(=O)CCNC(=O)Cn2ccc3ccccc3c2=O)C1 (stereo not given),"inconclusive [inhibitor, single point]",–
O=C1CC(NNc2ccccc2)C(=O)N1c1ccc(N2CCCCC2)cc1 (stereo not given),–,inactive: 2.77%
S=c1[nH]nc(-c2cc(-c3ccccc3)n[nH]2)n1/N=C/c1ccccc1,–,inactive: -15.1%
Oc1ccc(-c2cn3ccccc3n2)cc1O,"inconclusive [inhibitor, single point]",–
O=C(O)Cn1cc(/C=C2/NC(=O)N(c3ccc(Cl)cc3)C2=O)c2ccccc21,"inconclusive [inhibitor, single point]",–
Cc1ccc(C(=O)O)cc1N=Cc1cc(Br)cc(Br)c1O,"inconclusive [inhibitor, single point]",–
C=C1c2cccc(O)c2C(O)=C2C(=O)[C@@]3(O)C(O)=C(C(N)=O)C(=O)[C@@H](N(C)C)[C@@H]3[C@@H](O)[C@H]12,"inconclusive [inhibitor, full curve, poor fit]",–
COCCCNc1nc(=S)[nH]c2cc(OC)c(OC)cc12,"inconclusive [inhibitor, partial curve, poor fit]",–
CCN1/C(=C\C=C2\C(=O)N(C)C(=S)N2C)Sc2ccccc21,"inconclusive [inhibitor, single point]",–
COc1cccc(NC(=O)CN2C(=O)NC(C)(CCC(C)C)C2=O)c1 (stereo not given),–,inactive: 26.6%
CCn1c(=N)c(C(=O)NCc2ccccc2)cc2c(=O)n3cc(C)ccc3nc21,–,inactive: 3.69%
COCCOC(=O)C1=C(C)NC2(O)c3ccccc3C(=O)C12O (stereo not given),–,inactive: -6.24%
Cc1ccc(Cn2c(=O)c3c(nc4n3CCN4Cc3ccco3)n(C)c2=O)cc1,"inconclusive [inhibitor, partial curve, poor fit]",–
Cc1cccc(Oc2ncnc(N)c2[N+](=O)[O-])c1C,–,inactive: 1.38%
Cc1ccc(/C=C2\CCCC3=C2NC(=S)NC3c2ccc(C)cc2)cc1 (stereo not given),"inconclusive [inhibitor, partial curve]",–
CCN(C(=O)CSc1nnc(-c2ccc3c(c2)OCO3)o1)C1CCS(=O)(=O)C1 (stereo not given),–,inactive: 11.9%
CN1CCc2c(sc3nc(SCC(=O)N4CCOCC4)n(-c4ccc(Cl)cc4)c(=O)c23)C1,"inconclusive [inhibitor, single point]",–
O=C1C(c2cc(=O)c3ccccc3[nH]2)=C(O)c2ccccc21,"inconclusive [inhibitor, single point]",–
CC(C(=O)O)N1C(=O)/C(=C/C=C/c2ccco2)SC1=S (stereo not given),active: 3.98 µM,–
Cc1ccc(NC2CCCN(C(=O)c3ccc(F)cc3)C2)cc1C (stereo not given),"inconclusive [inhibitor, single point]",–
COc1ccc2c(c1)CCCN2C(N)=Nc1ccc(Cl)cc1,"inconclusive [inhibitor, partial curve, poor fit]",–
C/C(=N\Nc1ccccn1)c1ccc(C(C)C)cc1,"inconclusive [inhibitor, partial curve, poor fit]",–

SMILES,Potency,"activity change, negative = inhibition"
O=C(COC(=O)c1ccc(S(=O)(=O)N2CCOCC2)cc1)Nc1ccccc1F,"inconclusive [inhibitor, partial curve, poor fit]",–
COc1ccccc1C(=O)Nc1nnc(-c2ccco2)s1,"inconclusive [inhibitor, full curve]",–
COc1cc(OC)cc(C(=O)NNC(=S)NC2CC2)c1,"inconclusive [inhibitor, partial curve, poor fit]",–
COc1cc2cc(CNc3ccccc3)c(=O)n(CC(=O)Nc3ccccc3)c2cc1OC,"inconclusive [inhibitor, partial curve]",–
Cc1ccc(C(=Cc2ccc([N+](=O)[O-])cc2)C(=O)O)cc1,–,inactive: 8%
CCN1CCCc2cc(CN(CCN3CCOCC3)C(=S)Nc3cccc(C)c3)ccc21,"inconclusive [inhibitor, single point]",–
COc1cccc(NC(=O)C2CCN(S(=O)(=O)c3cccc4nonc34)CC2)c1,–,inactive: -0.898%
CCS(=O)(=O)Nc1ccc2c(c1)OCO2,"inconclusive [inhibitor, single point]",–
COc1ccc(/C=C2\CCn3c2nc2cc(C(=O)O)ccc2c3=O)cc1OC,"inconclusive [inhibitor, single point]",–
Cc1cc(NC(=O)CSc2nnc(-c3ccco3)n2CC2CCCO2)no1 (stereo not given),–,inactive: -1.14%
O=C(CCc1nnc(-c2ccsc2)o1)N1CCCCC1CCn1ccnc1 (stereo not given),"inconclusive [inhibitor, single point]",–
Cc1ccccc1C(=O)NNc1ccc(-c2csnn2)cc1,"inconclusive [inhibitor, single point]",–
CC1=NNC(=O)C1CCC(=O)N/N=C(/C)c1ccc([N+](=O)[O-])cc1 (stereo not given),"inconclusive [inhibitor, partial curve]",–
S=C(Nc1ccc2nsnc2c1)N1CCCCC1,"inconclusive [inhibitor, partial curve, poor fit]",–
Cc1ccccc1C(=O)Nc1c(C(=O)N(CCN(C)C)Cc2ccco2)oc2ccccc12,–,inactive: 7.73%
COc1ccccc1N1CCN(/N=C/c2cccc(O)c2)CC1,–,inactive: 10.6%
CN(C)CCc1cc2c(c3c1ccc1ccccc13)OCO2,–,inactive: 9.41%
Cc1ccccc1C1=CCN(c2ncc(NC(=O)c3ccc(Cl)cc3)cc2C(=O)O)CC1,"inconclusive [inhibitor, single point]",–
COc1cccc(/C=N/Nc2ccc([N+](=O)[O-])cc2)c1O,"inconclusive [inhibitor, partial curve]",–
CSc1ccccc1OCc1cc(C(=O)NCc2cccc(C)n2)no1,–,inactive: -6.16%
Cc1c(C)n(CC(O)CN2CCN(C)CC2)c2ccccc12 (stereo not given),–,inactive: -6.22%
O=S(=O)(c1ccc(NC(=S)N/N=C/c2ccc(O)c(O)c2)cc1)N1CCOCC1,"inconclusive [inhibitor, partial curve]",–
CSCCC(NC(=O)COc1ccccc1)C(=O)OCC(=O)c1cc2ccccc2o1 (stereo not given),"inconclusive [inhibitor, single point]",–
COc1cc2c(cc1OC)C(C)N(C(=O)c1cccs1)CC2 (stereo not given),–,inactive: -3.4%

SMILES,Potency,"activity change, negative = inhibition"
CC(C)C[C@H](NC(=O)[C@H]1N2C(=O)c3ccccc3C2SC1(C)C)C(=O)N[C@@H](Cc1ccccc1)C(=O)O (stereo not given in full),"inconclusive [inhibitor, single point]",–
N#Cc1sc(C(N)=O)c(-c2ccccc2)c1-c1ccccc1,"inconclusive [inhibitor, single point]",–
CC(C)NC(=O)N(O)C1N(C(C)C)C(=O)N(Cc2ccc3c(c2)OCO3)C1(C)C (stereo not given),"inconclusive [inhibitor, single point]",–
O=C1/C(=C\c2ccco2)SC(=S)N1c1ccccc1,–,inactive: 2.01%
CC(C)c1ccc(NS(=O)(=O)c2ccc3[nH]cc(C(=O)NCC4CCCO4)c(=O)c3c2)cc1 (stereo not given),–,inactive: -7.38%
O=C(NCc1cccc(CNC(=O)Nc2cccc(O)c2)c1)Nc1cccc(O)c1,"inconclusive [inhibitor, partial curve, poor fit]",–
O=C(c1ccc(-c2cccc([N+](=O)[O-])c2)o1)N1CCN(c2ccc([N+](=O)[O-])cc2)CC1,–,inactive: 4.4%
Cc1ccc(NC(=S)NNc2ccc([N+](=O)[O-])cc2S(=O)(=O)Nc2ccccc2C(=O)O)cc1C,"inconclusive [inhibitor, single point]",–
Cc1ccc(-c2n[nH]c(=S)n2C)cc1Cl,"inconclusive [inhibitor, single point]",–
COc1ccc(/C=N/n2c(=O)[nH]c3c([nH]c4ccc(F)cc43)c2=O)cc1CN1CCCCC1,"inconclusive [inhibitor, single point]",–
Cc1cc(NC(=O)CSc2cn(CCNC(=O)c3ccccc3)c3ccccc23)no1,active: 8.91 µM,–
COCCCN1C(=O)c2[nH]nc(-c3ccccc3O)c2C1c1ccc(OCc2ccccc2)cc1 (stereo not given),–,inactive: 9.26%
C1=C(N2CCOCC2)/C(=C/c2nc3ccccc3[nH]2)CC1,"inconclusive [inhibitor, single point]",–
Cc1cc(CC(=O)O)c2oc(-c3ccoc3)cc(=O)c2c1,"inconclusive [inhibitor, single point]",–
CC(=O)Nc1c(F)cc(Br)cc1F,–,inactive: -6.22%
CSCCC1NC2(C(=O)Nc3c(C)cc(Cl)cc32)[C@@H]2C(=O)N(C3CCCC3)C(=O)[C@H]12 (stereo not given in full),–,inactive: 12.1%
CN1C(=O)/C(=C\c2ccc(N(C)C)cc2)OC1=S,"inconclusive [inhibitor, single point]",–
O=C(NCC1CCCO1)c1sc(=S)n2c1[nH]c(=O)c1ccc(C(=O)N3CCCCC3)cc12 (stereo not given),–,inactive: 22.9%
Cc1cc(C)n(/N=C/c2cc(Cl)cc(Cl)c2O)c(=O)c1,"inconclusive [inhibitor, single point]",–
Cc1noc(C)c1C(=O)OCC(=O)Nc1c(F)cccc1F,"inconclusive [inhibitor, single point]",–
COc1ccccc1N1C(=O)C=C(Sc2nc(C)cc(C)n2)C1=O,active: 7.94 µM,–
COC(=O)c1ccc(CN(c2ccc(C(=O)O)c(O)c2)S(=O)(=O)c2ccc(Cl)c([N+](=O)[O-])c2)cc1,"inconclusive [inhibitor, partial curve, poor fit]",–
